How the values of this series were obtained:
Einer 80%igen wässrigen Lösung von Tributyltetradecylphosphoniumchlorid (Vrb. 17) wird bei 30 °C Di-(tributylzinn)oxid (Vrb. 13) zugegeben. Dieses Gemisch wird während 24 h ständig geschüttelt. Danach wird festgestellt, ob sich die gesamte Menge Tributylzinnoxid gelöst hat.
[…] . Dasselbe Resultat wird auch mit einer 40%igen Lösung von (17) erhalten.
Analog Beispiel 1 werden folgende Resultate erzielt (Endkonzentrationen)

Experimental findings from patent EP0109354B1, “Biocidally active mixture” (priority 1982, dated 1984) are described below.

As for `CCC[CH2][Sn]([Cl])([CH2]CCC)[CH2]CCC` [Verbindung 3, Tri-n-butylzinnchlorid], the “Sn-Verbindung in Lösung (Endkonzentration)” value is 3,8 Mol-%.
For `CCCCCCCCCCCCCC[P+](CCCC)(CCCC)CCCC.[Cl-]` [Verbindung 17, Tri-n-butyl-tetradecyl-phosphoniumchlorid], the “Endkonzentration der P-Verbindung” value is on record as 9,2 Mol-%.
